These results are taken from PubChem BioAssay AID434955 (Southern Research Specialized Biocontainment Screening …, 2010).

The list shows a part of the results. These are further read-outs of the screen, such as a control signal, another cell line or another target. No call is given for them. Most of these compounds were active or inconclusive in the main read-out, so they are no random draw.

This assay in a line: beta-lactam sensitization of Mtb H37Rv, H37Rv (AID 434955).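 Note: growth measured after seven days incubation then overnight dye step; 0% = bacteria only wells and 100% = bacteria with antibiotic.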 The following applies: M. tuberculosis H37Rv growth with meropenem, percent inhibition; measured here: primary screen without meropenem; at 25 µM.
A word on the inhibition: it is the drop in the measured response relative to a control, in per cent. For `CCC(=O)Nc1c2c(nn1-c1ccc(C)cc1)CS(=O)(=O)C2`, the inhibition is -9.62%.

On to `O=c1cc(C(F)(F)F)nc(SCc2cccnc2)[nH]1`, for which the inhibition is -9.69%.

In the case of `COc1cc(OC)cc(-n2nc(C(=O)N3CC(C)CC(C)C3)c3ccccc3c2=O)c1` (stereo unspecified), the inhibition is -3.54%.

Consider `CCCS(=O)(=O)Nc1cc(C(F)(F)F)ccc1OCCOC`, for which the inhibition was 5.08%.

For `COC(=O)c1ccccc1NC(=O)CN1CCC(C(=O)c2ccc3c(c2)OCCO3)CC1`, the inhibition was 98.8%.

For `CCC1CCCCN1C(=O)CSc1nc2ncccc2[nH]1` (stereo unspecified), the inhibition was -0.97%.

Take `CCCc1nc2n[nH]c(N)c2c2c1COC(C)(C)C2`: the inhibition was -3.65%.

With `CC1(C)Cc2c(sc(NC(=O)C(=O)N3CCCC3)c2C(=O)O)CO1`, the inhibition is 1.82%.

With `CCCCCCN=C(CC)c1c(O)n(CCCC)c(=O)[nH]c1=O`, the inhibition came to 81.2%.

As to `O=C1C=C2C=C[C@@H]3CC2(O1)[C@H]1CCCCN31`, the inhibition was found to be 1.11%.

As for `COc1ccccc1OCC(=O)NNC(=O)C(=O)N1CCCC1`, the inhibition is -9.5%.

Turning to `CCCc1nn2c(=O)cc(COc3cccc(NC(=O)c4ccco4)c3)nc2s1`, the inhibition is -1.24%.

Turning to `O=C(CSc1nnc2c3ccccc3c3ccccc3c2n1)Nc1ccccc1`, the inhibition was 5.58%.

On to `CSc1ccccc1OCc1cc(C(=O)N2CCNC(=O)C2)no1`, for which the inhibition is -3.48%.

Turning to `COCCN1C=C(C(=O)OC)C(c2ccccc2C(F)(F)F)C(C(=O)OC)=C1`, the inhibition was 39.1%.

Regarding `CC(C)(C)NC(=O)CSc1nc2ccc(NC(=O)CSc3nnc(N)s3)cc2s1`, the inhibition is -4.51%.

As for `CC(=O)c1ccc(OCc2ccc(Oc3c(Cl)cccc3[N+](=O)[O-])cc2)cc1`, the inhibition stood at 17.9%.

Take `CSc1ccccc1OCc1cc(C(=O)NCCn2ccnc2C)no1`: the inhibition is -7.72%.

In the case of `CCn1c(SCc2ccccc2)nnc1-c1ccc(S(=O)(=O)N2CCCCC2)cc1`, the inhibition is -10.4%.

For the compound `Cc1cccc(C)c1NC(=O)NC1CCc2ccccc21` (stereo unspecified), the inhibition is 5.5%.

With `Cc1cc(C)cc(C(=O)OCC(=O)Nc2cccc(S(=O)(=O)NC3=NCCCCC3)c2)c1`, the inhibition was determined as 7.45%.

As to `O=C(COc1ccc(/C=N/NC(=O)c2cccnc2)cc1)Nc1ccccc1`, the inhibition was 0.52%.

As for `O=C(O)/C=C\C(=O)Nc1ccccc1C#Cc1ccc(Br)cc1`, the inhibition is -3.09%.

For the compound `COc1ccc(OC)c(NC(=O)CS(=O)(=O)c2ccccc2)c1`, the inhibition was found to be 23.8%.

With `O=C(O)COc1ccc(/C=N/Nc2nc(Nc3ccccc3)nc(N3CCCCC3)n2)cc1`, the inhibition came to 23.6%.

For the compound `CN(C)c1ccc(/C=N/NC(N)=S)cc1[N+](=O)[O-]`, the inhibition was determined as 2.95%.

`CC(C)[C@H](NC(=O)C1CCN(C(=O)[C@H](Cc2ccccc2)NC(=O)OC(C)(C)C)CC1)C(=O)O`: the inhibition was determined as 1.16%.

For `Nc1ccc(-c2nc(-c3ccccc3)nc3ccccc23)cc1`, the inhibition worked out at 3.29%.

Regarding `COc1ccc(C(=O)Nc2ccccc2C(=O)NCc2cccnc2)cc1`, the inhibition is 0.14%.

In the case of `CCNC(=O)CCn1nc(-c2ccc(Cl)cc2)c2ccccc2c1=O`, the inhibition stood at 41.8%.

Regarding `COc1ccc(C(=O)N(C)Cc2ccon2)cc1OC1CCN(C(C)C)CC1`, the inhibition was -1.08%.

For the compound `O=C(CSc1nnc(CNC(=O)c2ccc(F)cc2)o1)NCCc1ccccc1`, the inhibition came out at 1.96%.

With `CCN(Cc1ccccc1)S(=O)(=O)c1cn(C)cn1`, the inhibition was -14.4%.

Consider `Cc1c2c(nc3c(C(=O)NC4CCCC4)cnn13)CCCC2`, for which the inhibition worked out at 16%.

Take `COc1ccc(CCNC(=O)c2ccc(N3CCCC3=O)cc2)cc1OC`: the inhibition is -0.65%.

For the compound `CC(C)N(Cc1ccccc1)C(=O)c1ccc2c(c1)OCO2`, the inhibition was -2.55%.

Turning to `COc1ccccc1NC(=O)CCn1cccc1`, the inhibition was -5.04%.

Regarding `CCCCn1c(N)c(-c2nc3ccccc3s2)c2c([N+](=O)[O-])nn(CC)c(=O)c21`, the inhibition turned out to be 15.8%.

As for `CC(=O)c1ccc(OCCCC(=O)OCC(=O)N2CCN(c3ccccc3)CC2)cc1`, the inhibition came out at 37.1%.

As to `COC(=O)c1cc(NC(=O)C2COc3ccccc3O2)cc(C(=O)OC)c1` (stereo unspecified), the inhibition is -0.63%.

For the compound `CCOC(=O)C1CCN(S(=O)(=O)c2ccc(NC(=O)c3ccco3)cc2)CC1`, the inhibition was -9.46%.

Turning to `CCOC(=O)CSc1nc2c(c(=O)n(C)c(=O)n2C)n1Cc1ccccc1F`, the inhibition is -8.75%.

Turning to `CSc1nc(SC)c2c3c(oc2n1)COC(C)(C)C3`, the inhibition was found to be 5.16%.

Regarding `O=C(Nc1cc(C(F)(F)F)ccc1N1CCOCC1)c1cccnc1`, the inhibition is -0.34%.

For the compound `CC1(C)CC(=O)C2=C(C1)NC(=O)C21C(C(=O)OC(C)(C)C)=C(N)Oc2ccc(Br)cc21` (stereo unspecified), the inhibition was 1.24%.

`COc1ccc(OC)c(NC(=O)CSC2=C(C#N)C(c3ccco3)C3=C(CCCC3=O)N2)c1` (stereo unspecified): the inhibition was found to be 27.5%.

For the compound `CCOc1ccc(-n2nc(C(=O)N3CCN(CC)CC3)c3ccccc3c2=O)cc1`, the inhibition was -6.07%.

`CC(=O)N1CCc2c(sc(NC(=O)CCS(=O)(=O)c3ccccc3)c2C(N)=O)C1`: the inhibition is -1.86%.

On to `COc1cc(NC(=O)CN(c2ccc(C)cc2)S(=O)(=O)c2c(C)nn(C)c2C)cc(OC)c1`, for which the inhibition was -9.06%.

Take `CCn1nc(C)c(NC(=O)c2cc(Br)ccc2Cl)c1C`: the inhibition came to 1.01%.

As to `CCOc1ccccc1/C=C/c1onc(C)c1S(=O)(=O)N1CCC(C(=O)NC)CC1`, the inhibition is -13.2%.

For the compound `O=C(Nc1cccc(-c2nc3ncccc3o2)c1)c1sc2ccccc2c1Cl`, the inhibition was found to be 5.82%.

On to `CC(C)(O)C#Cc1ccc(CN2CCCC(CNC(=O)c3ccco3)C2)cc1` (stereo unspecified), for which the inhibition was -1.07%.

Take `Cn1ncc(Br)c1C(=O)N1CCCC1`: the inhibition is -4.55%.

For the compound `CC(NC(=O)c1ccc(Br)cc1)c1ccc2c(c1)CCCC2` (stereo unspecified), the inhibition came to 1.68%.

In the case of `CCOC(=O)c1cnc(NCc2ccccc2)nc1C`, the inhibition came to 16.2%.

For `CS(=O)(=O)N(CC(=O)Nc1ccccc1C(=O)NCc1ccco1)c1ccc2c(c1)OCCO2`, the inhibition was -8.4%.

For `Cc1cccc(NC(=O)c2ccc(C3SCC(=O)N3CCc3ccccc3)cc2)c1C` (stereo unspecified), the inhibition turned out to be 2.16%.

Take `COc1cc(C(Nc2ccccn2)c2ccc3ccc(C)nc3c2O)cc(OC)c1O` (stereo unspecified): the inhibition was -1.6%.

Regarding `O=C1CSC(c2ccccn2)N1c1cccc(Cl)c1` (stereo unspecified), the inhibition was -5.69%.

Consider `CN(CCC1CCOCC1)C(=O)CC1C(=O)NCCN1Cc1c(F)cccc1Cl` (stereo unspecified), for which the inhibition was -3.18%.

With `Cc1cc(C)cc(-n2c(C)c3c(C)nnc(C)c3c2C)c1`, the inhibition is 97.1%.

Turning to `COC(=O)CSc1nnc(NC(=O)c2ccc3c(c2)OCO3)s1`, the inhibition was 56.1%.

Take `CCOC(=O)N1CCC(N2C(=O)c3ccccc3C2Nc2ccc3c(c2)OCCO3)CC1` (stereo unspecified): the inhibition is -3.61%.

With `Cc1cc2[nH]c(=O)c(=O)[nH]c2cc1S(=O)(=O)Nc1cccc(Cl)c1C`, the inhibition is -8.05%.

In the case of `Cn1cc(C(=O)N/N=C/C(Br)=C/c2ccccc2)ccc1=O`, the inhibition was 1.84%.

Regarding `CCOC(=O)N1CCN(c2nc(-c3ccccc3)c3cc(C)ccc3n2)CC1`, the inhibition was 9.53%.

`O=c1[nH]c(CN(CCO)CCO)nc2c1C1(CCCCC1)Cc1ccccc1-2`: the inhibition was 35%.

Regarding `COCCOC1CCN(C(=O)c2cc(COc3ccc(F)cc3F)on2)CC1`, the inhibition was determined as 3.82%.

For `CCOC(=O)c1ccc2c(c1)nc(SCC(=O)c1cc3ccccc3o1)n2CC`, the inhibition is -2.07%.

For the compound `Cc1c(C(=O)OC2CCC(C)CC2)[nH]c2c1C(=O)CCC2` (stereo unspecified), the inhibition is 5.48%.

Consider `CCOc1cc(/C=N\Nc2ccc([N+](=O)[O-])cc2)ccc1OCC(=O)Nc1ccc(C)c(C)c1`, for which the inhibition stood at 39%.

`Cc1cc(C(F)F)nn1CC(=O)NC1CCCC1`: the inhibition was determined as 1.97%.

With `CCCCCCn1c(COc2ccccc2F)nnc1SCC(=O)N1c2ccccc2NC(=O)C1(C)C`, the inhibition is 6.48%.

Consider `Cc1onc(-c2ccccc2Cl)c1C(=O)NCc1ccc2c(c1)cc(C)n2C`, for which the inhibition stood at 38.6%.

Turning to `CC(C)Oc1ccc(C2c3c(oc4ccccc4c3=O)C(=O)N2CCCN2CCOCC2)cc1` (stereo unspecified), the inhibition was -5.07%.

On to `CCOC(=O)C(=CNc1ccc2c(c1)c1ccccc1n2CC)C(=O)OCC`, for which the inhibition stood at 27.7%.

For `CCCCOP(=O)(c1ccc(N(C)C)cc1)C(O)c1c(Cl)cccc1Cl` (stereo unspecified), the inhibition was 2.86%.

In the case of `CSc1ccc(/C=N/n2c(COc3ccccc3)n[nH]c2=S)cc1`, the inhibition was 5.72%.

On to `COc1cc(NS(=O)(=O)c2c(C)[nH]c(C)c2C(=O)N2CCCC2)cc(OC)c1OC`, for which the inhibition is -4.22%.

For `COc1ccc(N(CC(=O)Nc2ccc(S(=O)(=O)N3CCCC3)cc2)S(C)(=O)=O)cc1OC`, the inhibition worked out at 10.1%.

As for `CCn1ncc2c1C(=O)NC1c3ccccc3C(=O)N21` (stereo unspecified), the inhibition worked out at 2.49%.

Take `O=[N+]([O-])c1ccc(Sc2nc3ccccc3o2)c([N+](=O)[O-])c1`: the inhibition amounted to 100%.

Take `COc1ccc(C2c3[nH]c4ccccc4c3C[C@H]3C(=O)N(C4CCN(Cc5ccccc5)CC4)CC(=O)N23)c(OC)c1` (stereo partly specified): the inhibition amounted to 30.2%.

`CCCOc1ccc(/C=N/NC(=O)c2c(-c3ccccc3)noc2C)cc1OC`: the inhibition worked out at 4.11%.

Take `CC(C)(C)c1nc2scc(-c3cccs3)c2c(=O)o1`: the inhibition turned out to be 9.69%.

In the case of `O=c1c2ccccc2nc(COc2ccccc2)n1/N=C/c1cc([N+](=O)[O-])ccc1O`, the inhibition was 37.8%.

`O=C1Nc2c(ccc(Cl)c2Cl)C(=O)C1(F)c1ccccc1` (stereo unspecified): the inhibition amounted to 34.5%.

Regarding `COc1ccc(C(=O)Nc2ccc3nc(N4CCCCC4)cc(C)c3c2)c(OC)c1`, the inhibition worked out at 6.26%.

Consider `CCCCCC(=O)Nc1c(-c2ccc(OC)cc2)c(=O)c2ccccc2n1C`, for which the inhibition amounted to 4.92%.

Consider `c1ccn2c(c1)nc1c2nc2ccccn21`, for which the inhibition was found to be 0.95%.

On to `Cc1ccc(/C=C/S(=O)(=O)NCC(=O)OCC(=O)NCc2ccccc2)cc1`, for which the inhibition came out at 6.29%.

`CC1CCc2nn(CC(=O)NCc3ccc(F)cc3)cc2C1` (stereo unspecified): the inhibition is -10.4%.

For `O=C1NCCN(Cc2cccc(Oc3ccccc3)c2)C1CC(=O)N1CCCCC1` (stereo unspecified), the inhibition turned out to be 0.41%.

For `Cc1ccc2nc(N(CCN(C)C)C(=O)c3ccc4ccccc4c3)sc2c1`, the inhibition was 3.77%.

With `CC(C)(C)c1ccc(C(=O)NCc2nnc(SCC(=O)NCc3ccco3)o2)cc1`, the inhibition is -1.92%.

As for `COCCCNc1nc2ccccc2nc1NS(=O)(=O)c1ccc(OC)cc1`, the inhibition was determined as 7.05%.

On to `Oc1ccc(Br)cc1/C=N/n1c(C2CCCCC2)n[nH]c1=S`, for which the inhibition was -6.89%.

Consider `O=C(NCc1cccnc1)C1CCCN(Cc2cnn(-c3ccccc3)c2-n2cccc2)C1` (stereo unspecified), for which the inhibition was -5.36%.

On to `CCCc1cc(C(=O)Nc2ccc(C(C)=O)cc2)no1`, for which the inhibition worked out at 29.9%.

For the compound `O=C(CCl)N(c1ccccc1)C1CCS(=O)(=O)C1` (stereo unspecified), the inhibition came to 24.5%.

As to `COc1ccc(S(=O)(=O)NCCOc2ccccc2)cc1F`, the inhibition turned out to be 4.71%.

For the compound `CCOC(=O)N1CCN(S(=O)(=O)/C=C/c2ccccc2)CC1`, the inhibition was -5.61%.

Take `O=C(CSc1nnc(NC(=O)c2cccc(F)c2)s1)NCC1CCCO1` (stereo unspecified): the inhibition turned out to be 5.02%.

Take `C=CCOC(=O)C1CC=CCC1C(=O)Oc1ccc(F)cc1F` (stereo unspecified): the inhibition came to 2.14%.

For `O=C(c1ccsc1)N1CCCC(N2CCN(c3ccccc3F)CC2)C1` (stereo unspecified), the inhibition was -5.18%.
